Measurements: ChEMBL document CHEMBL4888484, “Replenishing the malaria drug discovery pipeline: Screening and hit evaluation of the MMV Hit Generation Library 1 (HGL1) against asexual blood stage Plasmodium falciparum ,using a nano luciferase reporter read-out” (2022)
The campaign covered roughly 150,000 compounds. About 540 (0.36%) showed an effect of 50% or more. Some of the results follow.

System: Plasmodium falciparum
Assay: Primary screen in NF54 nanoGlo assay, in single point, at 2uM, 72h; a lower Z score goes with more inhibition
Format: functional, Erythrocyte
Settings: timepoint 72 hour

| SMILES | % Inhibition [%] | Z score |
| --- | --- | --- |
| O=C(c1nc(-c2ccccc2)nc2c1OCCO2)N1CCCC1 | -2 | 0.38 |
| CCc1nc(CN2C[C@@H]3NC(=O)CN(CCOC)C(=O)CCc4ccc(OC)c(c4)Oc4cccc(c4)CO[C@H]3C2)n[nH]1 | 6 | -0.77 |
| Cc1nnc2n1CC[C@@H](N(C)C(=O)c1ccc3ccccc3n1)CC2 | -10 | 1.51 |
| CCc1nc(C)c2c(n1)N(Cc1cccnc1)C(=O)CC2 | -3 | 0.49 |
| Nc1nc(-c2ccc(F)cc2)nn1C(=O)CCc1ccccc1 | -10 | 1.57 |
| Cc1ncc(CN[C@H]2CCCc3nc(-c4cccnc4)ncc32)n1C | 8 | -1.01 |
| COc1ccc(S(=O)(=O)N2CC[C@@H](c3ccccc3Cl)S(=O)(=O)CC2)cc1C | -1 | 0.24 |
| CC(C)(C)c1ccc2cc(C(=O)N[C@H]3CCCN(S(C)(=O)=O)C3)[nH]c2c1 | 6 | -0.98 |
| O=C(N[C@H]1C[C@@](CO)(c2ccccc2)C1)c1ccc(-c2cn[nH]c2)cn1 | -1 | 0.19 |
| O=C(NCC1(c2ccccc2)CC1)NC1CCCCCC1 | -4 | 0.81 |
| Cc1csc(NC(=O)C2=NN(c3ccccc3)[C@H](C(N)=O)C2)n1 | 15 | -1.98 |
| CN(c1cccnc1)S(=O)(=O)c1ccccc1 | -2 | 0.25 |
| Cc1ccc(C)c(-n2cc(CN3CCN(Cc4nccn4C)CC3)c(-c3ccccc3)n2)c1 | -9 | 1.05 |
| CCOC(C)C(=O)Nc1cc(C)n(C(C)CC)n1 (stereo not given) | -7 | 1.12 |
| Cc1cc(C)n(Cc2nnc3n2CCC3)n1 | -13 | 1.5 |
| O=S(=O)(NC1CC2CCC1C2)c1cncc(Br)c1 (stereo not given) | -6 | 0.77 |
| C1=CCN([C@H]2CCN(c3cc(-c4ccccc4)nc4ncnn34)C2)C1 | 0 | -0.05 |
| O=C(O)c1cc2oc(-c3ccc(Cl)c(Cl)c3)cc2[nH]1 | -40 | 4.75 |
| O=C(CCn1nc2ccccn2c1=O)N1CC=C(c2ccccc2)C1 | 2 | -0.23 |
| CCOC(=O)N1CCN(Cc2cnc3c(-c4ccccc4)cnn3c2)CC1 | -7 | 1.41 |
| Cc1ncc(CO)c(CN(C)Cc2ccccc2Cl)c1O | -1 | 0.14 |
| Cc1nc(-c2nc(C3CCCC3)nn2-c2ccc3nncn3n2)cs1 | -15 | 2.27 |

| SMILES | % Inhibition [%] | Z score |
| --- | --- | --- |
| Cc1noc(COCC(=O)NC(C)(C)CCc2ccccc2)n1 | 2 | -0.38 |
| Cc1n[nH]c(C)c1S(=O)(=O)N1CCC[C@H](c2cc[nH]n2)C1 | -8 | 1.34 |
| Cc1ccc(C(=O)C(=O)N(CC#N)C2CC2)cc1 | 2 | -0.26 |
| CCc1ncc(CN2CCC(OCc3ccccc3F)CC2)cn1 | -12 | 1.9 |
| Brc1ccccc1-c1nnc(COc2ccc3c(c2)OCO3)o1 | 0 | -0.05 |
| Cc1noc(C)c1C(=O)NC[C@H]1COc2ccccc2O1 | 5 | -0.58 |
| Cc1cc(CNc2ncnc3onc(C)c23)ccc1F | -3 | 0.47 |
| Cc1ccc2c(O)c(C(=O)N3C[C@@H](CO)[C@H](c4ccsc4)C3)cnc2n1 | -14 | 2.72 |
| COc1c([C@@H]2CCCN2c2nccc(C(F)(F)F)n2)c(C)nn1C | -4 | 0.38 |
| CCn1cc(CN2CCc3nnc(Cc4cccnc4)n3CC2)cn1 | 0 | -0.03 |
| CCc1ccc(C(=O)N[C@@H](C)C2CCN(C)CC2)[nH]1 | -16 | 1.43 |
| CC(C)(C)c1cc(NC(=O)c2ccc(CS(=O)(=O)C(F)F)cc2)n(C(C)(C)C)n1 | -16 | 2.2 |
| CCc1ccc(S(=O)(=O)N2CC(N3C(=O)CNC3=O)C2)s1 | -7 | 1.3 |
| CCCN(CC1CC1)C(=O)c1nc(NC(C)=O)ccc1Br | -4 | 0.72 |
| O=C1NCCN2CC3(CCN(C(=O)Nc4ccccc4F)CC3)C[C@@H]12 | -6 | 1.1 |
| CCC(Cc1ccc(C)cc1)NC(=O)NCC1CCC(O)C1 (stereo not given) | 3 | -0.47 |
| C1CC2(C1)CC(NC1CCC13CCC3)CCO2 (stereo not given) | 10 | -1.16 |
| CCCN1CCCN(S(=O)(=O)c2cnn(C)c2C)CC1=O | -5 | 0.78 |
| Cc1cccnc1CN(C)Cc1c(C)n[nH]c1C | 3 | -0.5 |
| CC(C)O[C@H]1CN(C(=O)Nc2cccnc2Oc2ccc(F)cc2)C[C@@H]1O | 4 | -0.82 |
| C#Cc1ccc(-c2nnc(-c3ccncc3)[nH]2)nc1 | -4 | 0.75 |
| CCCCCOC1CN(C(=O)Nc2nnc(C)s2)C1 | -3 | 0.34 |

| SMILES | % Inhibition [%] | Z score |
| --- | --- | --- |
| COC(=O)C1CN(C(=O)CCc2cnn(C)c2)CC1c1ccccc1 (stereo not given) | -13 | 2.28 |
| C[C@H](O)c1cc2n(n1)CCCN(C(=O)C(C)(C)Oc1ccc3c(c1)CCC3)C2 | 6 | -0.81 |
| O=C1NC(c2c(F)cccc2Cl)C(C(=O)C(F)(F)F)C(O)(c2ccccc2)N1 (stereo not given) | -15 | 2.04 |
| CCOC(=O)C1(CC2CC2)CCN(Cc2nccn2-c2cccc(C)c2)CC1 | -15 | 1.86 |
| COc1ccc(NC(=O)CS(=O)(=O)c2ccc3c(c2)S(=O)(=O)N=CN3)cc1Cl | -1 | 0.13 |
| CC(C)OCCCNc1ccc(C#N)c(N)n1 | 17 | -1.95 |
| CCN(C(=O)Cn1cccc(S(=O)(=O)N2CCOCC2)c1=O)c1ccccc1 | 5 | -0.97 |
| COCCN1C[C@H](CNC(=O)c2ccc(F)cc2F)OCC1=O | -16 | 2.12 |
| COc1cccc(C(=O)N[C@H](C(=O)N2CCCC2)C2CCN(C(=O)c3ccco3)CC2)c1 | 11 | -1.48 |
| Cc1nn(C)c(C)c1CNc1ccc(N2CCOCC2)nc1 | -7 | 0.99 |
| O=S(=O)(Nc1ccc(C2CC2)nn1)c1ccc(Cl)cc1 | 4 | -0.78 |
| CCCc1nc(NCCn2cnnc2)c2cnn(C)c2n1 | 3 | -0.32 |
| CC(C)N(CC(=O)Nc1nccs1)C(=O)COCc1ccccc1 | -7 | 0.71 |
| CCOc1ccc2c(C)c(-c3ncn[nH]3)oc2c1OCC | -9 | 1.28 |
| CCCN(Cc1ccsc1)C(=O)c1cc(C)on1 | -2 | 0.31 |
| CC1(C)CCC[C@@H]1NC(=O)c1ccc2c(c1)OCO2 | 0 | 0.04 |
| CCn1ncc(C(=O)N2C[C@H]3CN(Cc4ccccc4)C[C@@]3(CN(C)C)C2)c1C | -20 | 2.62 |
| COc1cccc(C(=O)N2[C@H](C(=O)NC(C)C)COC23CCN(C(=O)c2cccc(F)c2)CC3)c1 | 4 | -0.54 |
| O=C(CC1CCCO1)NCc1ccc(N2CCCCC2CCO)nc1 (stereo not given) | -7 | 1.03 |
| O=C(O)CCN(CCc1ccccc1)c1nc(-c2cccc(Br)c2)nc2ccccc12 | -14 | 2.1 |
| CCN1CCN(C(=O)c2cccc(-c3cnn4ccccc34)c2)CC1 | 2 | -0.42 |
| CCc1c(C)nn(C)c1NC(=O)NCC1(Cn2nc(C)cc2C)CC1 | -11 | 1.13 |

| SMILES | % Inhibition [%] | Z score |
| --- | --- | --- |
| O=C(COc1ccc(F)cc1)N[C@@H]1CN(c2ccncn2)C[C@H]1CO | -15 | 2.22 |
| Cc1ccc(C(=O)N[C@@H](C)C(C)(C)C)o1 | -12 | 1.67 |
| N#Cc1ccccc1NC(=O)[C@H]1CC(=O)N(c2ccc3c4c(cccc24)CC3)C1 | -10 | 1.89 |
| Cc1c(C(=O)NCc2cccnc2N2CCC(C(N)=O)CC2)cnn1CC(C)C | -9 | 1.23 |
| CCc1ccc([C@H](C)NCc2csc(N(C)C)n2)o1 | 5 | -0.52 |
| COc1cccc(-c2n[nH]c3c2CN(Cc2cc(C#CCO)cs2)CC3)c1 | -10 | 0.93 |
| CC(C)C(=O)N(Cc1cccc(OS(=O)(=O)C(C)C)c1)C(C)C | -9 | 0.85 |
| NC(=O)N1CCC[C@H]1C(=O)N(CCc1ccc(F)cc1)Cc1cccnc1 | -14 | 1.34 |
| Clc1ccccc1-c1noc(C2CCC(c3ccccc3)CC2)n1 (stereo not given) | -11 | 1.92 |
| COc1cc2c(cc1OC)CN(C(=O)c1cn(CC(C)C)c(=O)c3ccccc13)CC2 | -6 | 0.64 |
| CN(C)S(=O)(=O)N1C[C@H]2CC[C@@H](C1)N(C(=O)CCc1cnn(C)c1)C2 | 1 | -0.11 |
| O=C(CCc1cscn1)NC1CCC(c2ccc(F)cc2)CC1 (stereo not given) | -5 | 0.48 |
| O=c1[nH]c(N2CCOCC2)nc(=O)c2c1ncn2CCOc1ccc(F)cc1 | -5 | 0.64 |
| Cc1nccn1C[C@H]1CCCN(C(=O)Cn2cccn2)C1 | -3 | 0.6 |
| CC(C)(C)c1ccc(Cn2c(C(=O)Nc3ccccc3)cc3cc(NC(=O)c4ccco4)ccc32)cc1 | 3 | -0.38 |
| C[C@H](C(=O)O)C(=O)NCc1cc(Br)ccc1Br | -10 | 1.53 |
| Cc1cncc(CCNC(=O)NC2CC(N3CCC(C(F)(F)F)CC3)C2)n1 (stereo not given) | -11 | 1.49 |
| C[C@H](OCCCN=C(N)N1CCOCC1)c1ccccc1 | -8 | 0.69 |
| Cc1cnc(C[C@H]2CCN(S(=O)(=O)c3ccccc3)C2)n1CC1CC1 | -5 | 0.68 |
